{"source": "PubChem BioAssay (Tox21)", "note": "Inconclusive results, whose numbers are uncertain, are shown with a selection of clear calls. Potencies of inconclusive entries are left out as doubtful fits. The source holds several records for some structures; these can differ, active in one and inactive in another. Active and inactive are the calls of the source. The call rests on the fitted dose curve; in most records, active means well fitted activation curve with a large enough effect in the repeat runs; inconclusive means weak or mixed curves, or effect the other way; inactive means no such curve, though single readings can be large or run the other way. On the % scale 0 is the no-effect control and ±100 the full control effect; potency means the concentration at half of the fitted maximal effect; tags describe the fitted curve by direction and shape.", "data": [{"target": "Estrogen receptor (Homo sapiens) (UniProt P03372)", "sequence (P03372 whole entry, looked up)": "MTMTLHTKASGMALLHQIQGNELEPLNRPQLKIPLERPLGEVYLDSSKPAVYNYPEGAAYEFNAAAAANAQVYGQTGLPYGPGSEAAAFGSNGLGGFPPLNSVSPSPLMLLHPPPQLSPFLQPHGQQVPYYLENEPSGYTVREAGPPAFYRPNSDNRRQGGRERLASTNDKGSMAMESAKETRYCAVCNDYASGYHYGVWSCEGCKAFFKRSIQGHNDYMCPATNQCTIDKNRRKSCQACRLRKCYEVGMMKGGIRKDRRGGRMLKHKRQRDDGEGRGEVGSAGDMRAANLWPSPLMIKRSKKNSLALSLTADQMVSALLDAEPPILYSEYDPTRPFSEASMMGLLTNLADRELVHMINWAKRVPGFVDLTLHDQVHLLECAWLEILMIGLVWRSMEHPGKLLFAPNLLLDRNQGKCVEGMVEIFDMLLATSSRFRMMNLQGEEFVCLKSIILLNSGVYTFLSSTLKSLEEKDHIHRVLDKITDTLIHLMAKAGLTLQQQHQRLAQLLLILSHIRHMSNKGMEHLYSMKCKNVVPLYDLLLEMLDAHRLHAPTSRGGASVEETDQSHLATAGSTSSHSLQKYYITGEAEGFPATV", "assay": "qHTS assay to identify small molecule agonists of the estrogen receptor alpha (ER-alpha) signaling pathway using the BG1 cell line (AID 743079); further: nearly all actives have a fitted effect of over 20% in size", "conditions": "BG1Luc4E2 cells, ERE-luciferase agonist, 22 h; activation: at 70.3 µM (top of the series) unless noted", "values": [{"compound": "Nc1ccc(S(=O)(=O)c2ccc(N)cc2)cc1", "Potency": "inconclusive [activator, partial curve]"}, {"compound": "CCCCOc1ccc(N)cc1", "Potency": "inconclusive [activator, partial curve]"}, {"compound": "CCCC(C)C", "Potency": "inactive"}, {"compound": "COc1ccc(C(=O)Nc2ccccc2)cc1[N+](=O)[O-]", "Potency": "active: 3.09 µM"}, {"compound": "Clc1cc(Cl)c2c(c1)N=C1CCCCCN1C2", "Potency": "active: 23.7 µM"}, {"compound": "CC1=C(C)C(=O)C(CCCCC#CCCCC#CCO)=C(C)C1=O", "Potency": "inconclusive [inhibitor, partial curve]"}, {"compound": "COc1cc(NC(=O)CC(C)=O)c(OC)cc1Cl", "Potency": "inconclusive [inhibitor, full curve]"}, {"compound": "CCCCCCCCCCCC(=O)OC[C@@H](O)[C@H]1OC[C@H](OCCO)[C@H]1OCCO", "Potency": "inactive"}, {"compound": "CC(C)(C)NCC(O)COc1ccc(NC(=O)NC2CCCCC2)cc1", "note": "(stereo not given)", "activation": "inconclusive: 0.729% [phenotype inactive]"}, {"compound": "CC(=O)OCC(=O)[C@@]12OC(C)(C)O[C@@H]1C[C@H]1[C@@H]3C[C@H](F)C4=CC(=O)C=C[C@]4(C)[C@@]3(F)[C@@H](O)C[C@@]12C", "Potency": "inconclusive [activator, full curve, poor fit]"}, {"compound": "CC(=O)NCCCS(=O)(=O)O", "Potency": "inactive"}, {"compound": "O=C(Nc1ccc(Cl)c(Cl)c1)C1CC1", "Potency": "inconclusive [inhibitor, partial curve]"}, {"compound": "C[C@]12CCC(=O)C=C1CC[C@H]1[C@@H]3CC[C@](O)(C(=O)CO)[C@@]3(C)C[C@H](O)[C@@]12F", "Potency": "active: 4.73 µM"}, {"compound": "CC(C(=O)O)c1ccc(C(=O)c2ccccc2)s1", "note": "(stereo not given)", "Potency": "inconclusive [activator, single point]"}, {"compound": "CC(C)c1ccc2oc3nc(N)c(C(=O)O)cc3c(=O)c2c1", "activation": "inconclusive: 4.4% [phenotype inactive]"}, {"compound": "COC(=O)/C=C/C(C)=C\\C=C\\C(C)=C\\C=C\\C=C(C)\\C=C\\C=C(C)\\C=C\\C(=O)O", "activation": "inconclusive: 17.3% [phenotype inactive]"}, {"compound": "CCCCc1ccc2nc(NC(=O)OC)[nH]c2c1", "Potency": "active: 2.27 µM"}, {"compound": "O=C(Nc1ccccc1)c1cc([N+](=O)[O-])ccc1Cl", "Potency": "inconclusive [activator, single point]"}, {"compound": "CCC(Cc1ccccc1)(C(=O)c1ccc(N2CCOCC2)cc1)N(C)C", "note": "(stereo not given)", "activation": "inconclusive: -23.1% [phenotype inactive]"}, {"compound": "CC(=O)OCC(=O)[C@@]12N=C(C)O[C@@H]1C[C@H]1[C@@H]3CCC4=CC(=O)C=C[C@]4(C)[C@H]3[C@@H](O)C[C@@]12C", "activation": "inconclusive: 19.6% [phenotype inactive]"}, {"compound": "CC(=O)OCC(=O)[C@H]1CC[C@H]2[C@@H]3CCC4=CC(=O)CC[C@]4(C)[C@H]3CC[C@]12C", "Potency": "active: 4.22 µM"}, {"compound": "CC1(C)O[C@@H]2C[C@H]3[C@@H]4CCC5=CC(=O)C=C[C@]5(C)[C@H]4[C@@H](O)C[C@]3(C)[C@]2(C(=O)CO)O1", "Potency": "active: 0.596 µM"}, {"compound": "O=C1c2cccc(O)c2C(=O)c2c(O)cc(CO)cc21", "activation": "inconclusive: 14.3% [phenotype inactive]"}, {"compound": "Cc1cccc(C)c1NC(=O)CN1CCCCCC1", "Potency": "inactive"}, {"compound": "COc1c2ccoc2cc2oc(=O)ccc12", "Potency": "inconclusive [activator, single point]"}, {"compound": "C=CC(=O)OCC(C)OCC(C)OCC(C)OC(=O)C=C", "note": "(stereo not given)", "activation": "inconclusive: -7.34% [phenotype inactive]"}, {"compound": "CCc1c2c(nc3ccc(OC(=O)N4CCC(N5CCCCC5)CC4)cc13)-c1cc3c(c(=O)n1C2)COC(=O)[C@]3(O)CC", "Potency": "inconclusive [inhibitor, partial curve]"}, {"compound": "c1ccc2c(c1)ccc1ccccc12", "activation": "inconclusive: -0.0138% [phenotype inactive]"}, {"compound": "OCc1c2ccccc2cc2ccccc12", "Potency": "active: 54.6 µM"}, {"compound": "COc1cccc(N(C)C(=S)Oc2ccc3c(c2)CCCC3)n1", "Potency": "inconclusive [inhibitor]"}, {"compound": "O=S1(=O)c2cccc3cccc(c23)N1CCCN1CCN(c2ccc(F)cc2)CC1", "Potency": "inconclusive [inhibitor]"}, {"compound": "Cc1nc(-c2ccccn2)ncc1C(=O)Nn1cc(C)c2cc(F)ccc21", "Potency": "inconclusive [inhibitor, single point]"}, {"compound": "CCCCCCCCCCCCC(=O)O", "Potency": "inconclusive [activator, partial curve]"}, {"compound": "C#CCN(C)CCCOc1ccc(Cl)cc1Cl", "Potency": "active: 29.8 µM"}, {"compound": "Clc1cccc(C(c2ccc3nc[nH]c3c2)n2ccnc2)c1", "note": "(stereo not given)", "Potency": "inconclusive [inhibitor, partial curve]"}, {"compound": "c1ccc(-c2ccc(-c3ccccc3)cc2)cc1", "Potency": "active: 0.791 µM"}, {"compound": "O=c1c2ccccc2oc2ccccc12", "Potency": "active: 48.6 µM"}, {"compound": "COC(=O)N[C@H](C(=O)N[C@@H](Cc1ccccc1)[C@@H](O)CN(Cc1ccc(-c2ccccn2)cc1)NC(=O)[C@@H](NC(=O)OC)C(C)(C)C)C(C)(C)C", "Potency": "inconclusive [inhibitor, partial curve, poor fit]"}, {"compound": "O=C(NS(=O)(=O)/C=C/c1cccs1)c1ccc(F)cc1Br", "Potency": "active: 68.6 µM"}, {"compound": "Cc1nc2sccn2c(=O)c1CCN1CCC(=C(c2ccc(F)cc2)c2ccc(F)cc2)CC1", "Potency": "inconclusive [inhibitor, single point]"}]}]}
